# Reference: the supplement of paper PMC7826260
# This is one part of the list. Viral Rep nickase domains cut single-stranded DNA in vitro for 1 h at 37 °C with 3 µM enzyme; only the middle of the 90-letter strands is printed. Numbers give uncut DNA relative to the enzyme-free pool, as log2; more negative means more cut, near 0 not cut, and no call is made. Because reads are shares of a total, they shift together, so uncut sequences can rise above 0 when many others are cut.
# Experiments:
# Test in all cases: uncleaved DNA left, log2 of reads against the no-enzyme library (log2 ratio); higher = less cleavage (more negative = more Rep cleavage of the k-mer); sequences stand for … in CTCGTCCG…ACCGGAGA
# [1] = test system: T1, Rep nickase domain of Muscovy duck circovirus
# T1 sequence (Rep 1-111, printed without the tag): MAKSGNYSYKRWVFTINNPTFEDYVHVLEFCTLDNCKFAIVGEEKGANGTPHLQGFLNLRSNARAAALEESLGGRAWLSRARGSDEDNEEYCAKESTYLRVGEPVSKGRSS
# Procedure: (§1)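 A pool of 90-nt single-stranded DNAs with seven random bases just before the constant AC of the nick site (name = the seven bases) was cut by 3 µM recombinant His6-SUMO-tagged Rep nickase domain (300 nM DNA, 50 mM HEPES pH 8.0, 50 mM NaCl, 1 mM MnCl2, 1 h, 37 °C, three replicates). Uncut DNA was amplified and sequenced.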
# [2] = test system: T2, Rep nickase domain of banana bunchy top virus
# T2 sequence (Rep 1-94, printed without the tag): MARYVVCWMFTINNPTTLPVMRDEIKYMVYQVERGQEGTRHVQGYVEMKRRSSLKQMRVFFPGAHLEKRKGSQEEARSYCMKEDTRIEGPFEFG
# Procedure: as §1
# [3] = test system: T3, Rep nickase domain of cabbage leaf curl virus
# T3 sequence (Rep 1-116, printed without the tag): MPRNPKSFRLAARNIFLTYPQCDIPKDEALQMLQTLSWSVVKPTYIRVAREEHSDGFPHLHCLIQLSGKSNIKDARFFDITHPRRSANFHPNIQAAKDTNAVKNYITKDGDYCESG
# Procedure: as §1
# [4] = test system: T4, Rep nickase domain of chickpea chlorotic dwarf virus
# T4 sequence (Rep 1-124, printed without the tag): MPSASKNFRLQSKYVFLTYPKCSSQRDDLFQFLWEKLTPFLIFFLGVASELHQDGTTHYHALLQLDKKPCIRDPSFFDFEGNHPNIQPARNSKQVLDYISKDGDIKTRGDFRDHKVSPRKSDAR
# Procedure: as §1
# [5] = test system: T5, Rep nickase domain of faba bean necrotic yellows virus
# T5 sequence (Rep 1-98, printed without the tag): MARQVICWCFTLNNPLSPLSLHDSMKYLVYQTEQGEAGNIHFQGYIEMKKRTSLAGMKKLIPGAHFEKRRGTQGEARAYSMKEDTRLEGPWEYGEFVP
# Procedure: as §1
# [6] = test system: T6, Rep nickase domain of maize striate mosaic virus
# T6 sequence (Rep 1-117, printed without the tag): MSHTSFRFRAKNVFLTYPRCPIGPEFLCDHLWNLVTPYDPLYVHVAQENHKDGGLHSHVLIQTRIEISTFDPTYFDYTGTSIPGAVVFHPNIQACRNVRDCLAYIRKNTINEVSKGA
# Procedure: as §1
# [7] = test system: T7, Rep nickase domain of porcine circovirus 2
# T7 sequence (Rep 2-116, printed without the tag): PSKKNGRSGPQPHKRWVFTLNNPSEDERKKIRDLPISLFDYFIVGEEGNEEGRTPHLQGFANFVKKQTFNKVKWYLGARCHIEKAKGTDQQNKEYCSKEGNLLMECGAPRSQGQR
# Procedure: as §1
# [8] = test system: T8, Rep nickase domain of tomato yellow leaf curl virus
# T8 sequence (Rep 1-136, printed without the tag): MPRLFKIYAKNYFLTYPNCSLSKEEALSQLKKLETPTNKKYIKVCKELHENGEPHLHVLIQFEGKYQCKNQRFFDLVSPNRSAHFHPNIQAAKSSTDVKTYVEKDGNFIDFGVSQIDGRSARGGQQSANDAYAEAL
# Procedure: as §1
# [9] = test system: T9, Rep nickase domain of wheat dwarf virus
# T9 sequence (Rep 1-137, printed without the tag): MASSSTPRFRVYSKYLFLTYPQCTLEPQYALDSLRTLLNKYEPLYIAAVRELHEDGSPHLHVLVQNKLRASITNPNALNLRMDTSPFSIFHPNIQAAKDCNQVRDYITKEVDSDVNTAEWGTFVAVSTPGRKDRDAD
# Procedure: as §1
Sequence,uncleaved DNA left (log2) [1],uncleaved DNA left (log2) [2],uncleaved DNA left (log2) [3],uncleaved DNA left (log2) [4],uncleaved DNA left (log2) [5],uncleaved DNA left (log2) [6],uncleaved DNA left (log2) [7],uncleaved DNA left (log2) [8],uncleaved DNA left (log2) [9]
GAGCGCG,-0.0906,-0.0249,-0.418,-0.328,-0.0987,-0.561,0.0157,-0.0913,-0.121
CTACTGC,-0.0434,-0.0266,-0.331,-0.608,-0.0875,-0.581,0.0413,-0.251,-0.105
ACTTTCG,-0.106,-0.0459,-0.751,0.511,-0.0523,-0.431,0.0499,-0.0452,-0.168
AGTCAAT,0.0103,-0.0584,0.276,0.437,-0.201,0.485,-3.44,0.00192,0.109
TTTCACT,-0.293,-0.0809,0.0315,-2.15,-0.0955,-0.0945,-1.27,-0.011,-0.114
GAGTTTT,-2.49,-2.52,-0.073,-1.92,-2.64,1.16,-3.43,0.151,-0.0219
CGAGCTG,-0.104,0.0162,0.0851,0.794,-0.0329,1.59,-0.092,-0.216,0.00886
GACTTTA,0.112,0.118,0.105,-0.296,0.067,0.983,-1.64,0.127,0.184
CAATCTC,-0.166,0.0716,-2.73,-2.42,-0.0998,0.211,-0.197,0.0837,-1.36
ACTCGTC,0.024,-0.206,-0.403,-0.398,-0.116,-0.891,0.0577,-0.219,-0.141
GTGTCCA,-0.00156,0.104,0.263,0.908,-0.017,1.79,0.0843,0.0819,0.141
TCATGCT,-1.2,-0.167,-2.36,-2.84,-0.0279,-1.6,-1.41,-0.00159,-0.197
ATCAACC,-0.108,-0.0943,-0.142,-1.44,0.0138,-0.839,-0.491,-0.0431,-0.0393
GCACTCG,-0.0859,-0.113,-0.863,-0.525,-0.0108,-1.12,0.0853,-0.131,-0.117
GACCTGG,0.162,0.114,0.1,0.315,0.0395,-0.146,0.145,0.166,0.0603
CGAACTT,0.0277,0.0302,-0.0216,0.0377,-0.0258,1.28,-0.024,-0.114,0.161
GCGCCCT,-0.145,-0.0643,0.0429,-0.596,-0.0329,0.293,-0.285,-0.0543,0.0128
GAGGGTT,0.06,-0.0604,0.262,0.476,-0.0131,1.7,-0.67,-0.0117,-0.0294
TGCCCGC,0.0862,0.119,0.336,0.269,0.0459,0.221,0.0257,0.081,0.084
ATCCGGC,-0.131,-0.241,-0.181,-0.151,-0.0719,-0.773,0.114,-0.123,-0.112

Sequence,uncleaved DNA left (log2) [1],uncleaved DNA left (log2) [2],uncleaved DNA left (log2) [3],uncleaved DNA left (log2) [4],uncleaved DNA left (log2) [5],uncleaved DNA left (log2) [6],uncleaved DNA left (log2) [7],uncleaved DNA left (log2) [8],uncleaved DNA left (log2) [9]
AGCAGTC,0.111,0.0452,0.118,0.431,0.16,-0.0566,0.0356,-0.0237,0.0563
GTGATCC,0.091,0.0748,0.394,0.929,0.142,1.92,0.22,0.138,0.269
ACGCAGA,0.0694,0.0265,-0.264,-0.13,0.2,-0.811,0.246,0.0221,0.0295
TTGTAAA,0.0209,0.0181,0.353,0.689,0.0215,1.07,0.06,0.0972,-0.0388
GTCTGAA,-0.00409,0.0735,0.232,0.83,0.0544,1.61,0.0838,0.0828,0.0642
CAGTTAT,-0.422,-2.52,-0.0447,-1.51,-0.813,0.229,-3.53,-0.0805,-0.0375
ACAAATC,0.137,0.188,0.115,-0.0153,0.137,-0.646,0.197,-0.0864,0.177
ATCAAAA,-0.0854,0.00926,-0.0873,-0.0212,-0.0162,-0.738,-0.0136,-0.0852,-0.0428
AACTCTC,-0.34,-0.156,-0.131,-0.594,0.00426,-0.513,-3.15,-0.102,-0.00155
AAAGAGT,0.0761,-4.1e-05,0.0688,0.48,0.0571,0.682,0.186,-0.0383,0.0712
ATTTGGC,0.000739,-0.138,-0.551,-0.595,-0.148,-1.23,0.113,-0.0467,-0.11
TCTAGCA,0.00605,0.0016,-0.274,-0.883,0.106,-0.921,-0.0269,0.131,0.0407
GTTAGAA,0.109,0.143,0.294,0.917,0.113,1.77,0.178,0.0407,0.11
TGGGTGG,0.12,-0.192,0.168,0.468,-0.0512,0.37,0.0255,-0.111,-0.0718
CCAATTT,-0.0281,-0.0583,-0.157,-2.51,0.0292,-0.789,-0.238,-0.0895,-0.234
ACATGCA,-0.00418,0.0317,-0.537,-0.667,0.0871,-0.979,0.131,0.238,0.0121
ACCCGGG,0.129,0.0216,0.255,0.847,0.0143,0.0527,0.289,0.164,0.0334
ACTTGTG,0.114,-0.00222,-0.399,1.09,0.0504,0.168,0.0482,0.0328,0.0669
TGCCCAA,-0.0176,0.0351,0.177,0.4,-0.0902,-0.169,-0.0543,0.0928,0.072
TGAAGTC,-0.091,-0.122,-0.0538,-0.308,0.0714,-0.326,0.0255,-0.0516,-0.174

Sequence,uncleaved DNA left (log2) [1],uncleaved DNA left (log2) [2],uncleaved DNA left (log2) [3],uncleaved DNA left (log2) [4],uncleaved DNA left (log2) [5],uncleaved DNA left (log2) [6],uncleaved DNA left (log2) [7],uncleaved DNA left (log2) [8],uncleaved DNA left (log2) [9]
TGCACTC,-0.1,0.0208,0.105,0.321,-0.164,0.262,0.0303,0.0356,0.00596
AGGAATC,0.142,0.0872,0.311,0.811,0.119,0.542,0.095,0.14,0.185
AATGTTC,0.00991,-0.0595,-0.0896,-1.87,-0.00164,-0.434,-0.0543,-0.0427,-0.0491
GCGCTGG,0.217,0.0658,0.0192,0.351,0.0181,0.67,0.115,-0.0339,-0.0255
TACCTCG,0.0078,0.111,-0.879,-1,0.00194,-1.2,-0.845,0.0239,-0.0197
GCGCTCA,-0.148,-0.106,-0.00884,-0.188,-0.118,0.0656,-0.16,-0.0359,0.0365
AGCACAG,0.0703,0.188,0.0781,0.456,-0.0243,0.989,0.0963,0.025,0.135
CGTCCCT,-0.0827,-0.0992,0.0366,-0.992,-0.0597,-0.0244,-0.355,0.00294,-0.068
GGCATGA,-0.0408,0.0627,0.589,1.48,0.0653,1.8,0.0683,0.0316,0.0481
TGTAGTA,0.159,0.0421,0.163,-0.241,0.0116,0.253,-0.104,0.103,-0.00523
CTGACTT,-0.0345,-0.12,-0.0341,-0.458,-0.064,0.261,-0.019,0.0427,0.055
ATCGAAG,0.0347,0.073,-0.614,-0.593,-0.0665,-0.978,0.199,0.00459,-0.00187
CGGGCGA,0.147,0.169,-0.234,0.0447,0.164,-0.0823,0.249,0.0813,0.0345
CGAACCA,-0.0361,0.0234,-0.0807,-0.942,-0.0538,-0.256,-0.356,-0.0305,0.0189
CAAGAGT,0.000717,-0.152,-0.456,-1.13,-0.0606,-0.725,-0.183,-0.141,-0.178
CCCAAAA,-0.07,0.0897,-0.0913,0.122,0.0406,-0.612,0.12,-0.062,0.0552
TCTCGAG,-0.0588,-0.257,-0.000215,0.0228,-0.168,-0.978,0.0249,-0.0765,-0.16
GATTAGT,-2.52,-2.67,0.12,-0.359,-0.0495,-0.0524,-2.82,0.151,0.11
AAGGTAA,0.161,0.126,0.297,1.06,0.163,1.16,0.21,0.127,0.174
TATAGTT,-1.18,-2.03,-2.41,-3.08,-0.0793,-0.601,-3.11,-0.214,-0.433
